Among all 310,000 compounds or so, about 2,200 (0.71%) showed an effect of 50% or more. The effect is printed as a negative number. This is one part of the list.
molecular target: human ether-à-go-go-related gene (hERG) potassium channel (human, UniProt Q12809); assay: primary screen, population patch clamp on CHO cells stably expressing hERG
Sequence (Q12809 whole entry, looked up): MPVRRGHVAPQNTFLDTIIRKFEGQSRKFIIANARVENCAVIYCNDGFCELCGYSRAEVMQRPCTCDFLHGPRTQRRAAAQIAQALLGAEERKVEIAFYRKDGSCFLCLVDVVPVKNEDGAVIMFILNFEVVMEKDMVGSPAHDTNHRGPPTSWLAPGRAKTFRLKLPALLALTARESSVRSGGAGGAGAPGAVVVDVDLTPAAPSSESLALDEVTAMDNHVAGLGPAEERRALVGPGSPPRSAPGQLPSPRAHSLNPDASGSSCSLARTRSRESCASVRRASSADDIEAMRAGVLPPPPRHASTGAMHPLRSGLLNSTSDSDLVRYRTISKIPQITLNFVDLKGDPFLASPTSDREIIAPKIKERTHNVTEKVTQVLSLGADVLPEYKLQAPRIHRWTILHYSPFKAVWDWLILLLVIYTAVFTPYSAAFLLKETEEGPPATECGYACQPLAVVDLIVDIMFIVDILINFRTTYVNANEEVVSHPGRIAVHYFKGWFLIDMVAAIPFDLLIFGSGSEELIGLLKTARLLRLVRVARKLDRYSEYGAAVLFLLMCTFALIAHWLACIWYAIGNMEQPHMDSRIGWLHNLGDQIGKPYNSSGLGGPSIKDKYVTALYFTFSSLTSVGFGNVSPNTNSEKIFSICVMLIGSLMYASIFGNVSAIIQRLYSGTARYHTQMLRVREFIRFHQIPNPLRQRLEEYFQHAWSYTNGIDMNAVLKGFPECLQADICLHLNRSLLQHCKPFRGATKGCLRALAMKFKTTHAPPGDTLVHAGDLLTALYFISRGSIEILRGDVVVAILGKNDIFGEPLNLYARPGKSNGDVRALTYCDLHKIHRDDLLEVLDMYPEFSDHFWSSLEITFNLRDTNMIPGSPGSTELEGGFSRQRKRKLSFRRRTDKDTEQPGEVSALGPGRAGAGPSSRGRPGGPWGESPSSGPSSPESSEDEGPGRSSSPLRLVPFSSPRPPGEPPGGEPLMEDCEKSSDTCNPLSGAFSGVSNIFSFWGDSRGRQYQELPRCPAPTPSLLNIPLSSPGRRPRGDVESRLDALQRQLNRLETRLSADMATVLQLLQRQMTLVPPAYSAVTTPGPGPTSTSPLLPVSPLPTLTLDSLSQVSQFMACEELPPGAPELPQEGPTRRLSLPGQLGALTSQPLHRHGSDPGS

Compound	hERG current change (%, negative = inhibition) at 1uM [%]
Cc1ccc(NC(=O)CNC(=O)c2ccc(C)s2)nc1	3.54
Cc1ccc(Oc2ncnc3sccc23)cc1	8.91
CCOC(=O)CSc1ncnc2c1cnn2-c1ccc(C)cc1C	9.71
CCOC(=O)C1(CCCc2ccccc2)CCN(C(=O)c2cc(C)nc(C)n2)CC1	3.56
CN(C)S(=O)(=O)c1ccc(C(=O)OCCc2ccccc2)cc1	12.1
CCCCNC(=O)c1onc(CSc2ccccc2)c1C(=O)NCCCC	-4.07
O=C(NC(=S)NC1CCCc2ccccc21)c1ccco1 (stereo not shown)	4.45
N#CC1=C(SCc2ccccc2Cl)NC(=O)C(C(N)=O)C1 (stereo not shown)	11.3
CN(C)c1ccc(S(=O)(=O)N2CCCCC2)cc1NC(=O)CN1C(=O)NC(C)(c2ccccc2)C1=O (stereo not shown)	18.2
COC(C/C=C/[C@H](O)[C@@H](C)OCc1ccccc1)OC	13.6
CC(=O)Nc1ccc(-c2csc(NC(=O)C3CSC4(C)CCC(=O)N34)n2)cc1 (stereo not shown)	11.9
O=C(Cc1ccc(Cl)c(Cl)c1)Nc1ccc(S(=O)(=O)Nc2ncccn2)cc1	13.3
CC(C)n1ncc2c(C(=O)N3CCN(Cc4ccc(Br)s4)CC3)cc(C3CC3)nc21	3.17
COc1ccccc1NC(=S)NC(=O)c1ccc(Cn2cc(Br)cn2)cc1	1.66
O=c1[nH]c(CN2CCc3ccccc3C2)nc2ccccc12	6.21
Cc1ccccc1N=C1NC(=O)/C(=C/c2cccn2C)S1	11.9
Cc1ccc(C(=O)n2c(-c3ccccc3)cnc2SCC(=O)Nc2ccccc2)cc1	12.8
Clc1cccc(N2CCN(Cc3nnc(-c4ccccc4)o3)CC2)c1	6.03
O=C(Nc1cccc(-c2cccc(Cl)c2)c1)C1CCN(Cc2ccc(CO)o2)CC1	-11.2
CC1(C)Cc2c(c(N3CCOCC3)nc3sc(C(=O)Nc4ccc(Cl)cc4)c(N)c23)CO1	12.8

Compound	hERG current change (%, negative = inhibition) at 1uM [%]
O=C(Cc1nc2ccccc2[nH]c1=O)c1ccc(Cl)cc1	11.1
CCn1c(N)c(Br)c(=O)[nH]c1=O	9.81
COc1cc(OC)c(OC)cc1CN1CCCC(C(=O)c2ccc3c(c2)OCO3)C1 (stereo not shown)	-27.7
CSc1cccc(CN2CCC(Oc3ccc(C(=O)N4CCCCC4)cc3)CC2)c1	-2.43
COc1cccc(COc2cc3ccccc3nc2C)c1	13.3
Cc1cc(NC(=O)CCN2CCC(C(N)=O)CC2)ccc1Br	4.3
CC/C(=N\NC(=O)c1ccc(-c2ccccc2)cc1)C12CC3CC(CC(C3)C1)C2	5.79
O=C(NCCc1ccccc1)c1ccc2c(c1)S(=O)(=O)c1ccccc1C2=O	2.35
O=C(CSc1nc2ccccc2[nH]1)Nc1cccc(S(=O)(=O)N2CCOCC2)c1	-0.172
COc1ccc(CCNC(=O)c2ccc3ccccc3n2)cc1	14
CCO[C@H]1OC(C(=O)N2CCN(Cc3ccc4c(c3)OCO4)CC2)=C[C@@H](C2CC2)[C@@H]1CCCO	6.84
COC(=O)c1c(-c2ccc(OC)cc2)sc2ccccc12	5.17
FC(F)(F)c1ccc(N/N=C/c2cccnc2)nc1	9.78
COc1ccccc1/C=N/NC(=O)c1ccc(NC(=O)c2cccc([N+](=O)[O-])c2)cc1	13.4
O=C(Cc1cccs1)Nc1nc(-c2ccc(F)cc2F)cs1	4.96
CN(C)c1ccc(C=C2C(=O)NC(=O)NC2=O)cc1[N+](=O)[O-]	18.5
Cc1cc(=O)oc2c3c(cc(OCC(=O)NCCN4CCOCC4)c12)OC(C)(C)CC3	12.8
COc1ccccc1CNc1nc(SC)ncc1CO	-2.02
CC(=O)N(Cc1ccc(Br)cc1)c1ccccc1C(=O)O	6.95
Cc1ccc(S(=O)(=O)N(C)CC(=O)NC2CCCC2)cc1	2.2

Compound	hERG current change (%, negative = inhibition) at 1uM [%]
CCCCNCC(=O)Nc1ccc(NC(=O)CNCCCC)cc1	16.2
O=C1C2C3C=CC([C@@H]2C(=O)N1Cc1cccnc1)C31CC1 (stereo partly shown)	9.48
CCc1ccc(-n2c(C)cc(/C=N/NC(=O)c3ccncc3)c2C)cc1	6.87
Cc1ccc(S(=O)(=O)N2CCCN(C(=O)OC(C)(C)C)CC2)cc1	14.8
CC(O)CNc1ccc([N+](=O)[O-])c2cccnc12 (stereo not shown)	4.21
CCCCc1nnc(NC(=O)CCN2C(=O)C3CC=CCC3C2=O)s1 (stereo not shown)	11.3
O=C1COc2ccc(C(=O)COC(=O)c3c(F)cccc3Cl)cc2N1	1.5
Nc1cc(=O)[nH]n1C1CCN(c2ccccc2)CC1	16.5
CCC(Sc1ncccc1C(=O)OC(C)C)C(=O)NCc1ccco1 (stereo not shown)	-0.195
CC(=O)Nc1cccc(NC(=O)c2ccc([N+](=O)[O-])cc2Cl)c1	8.24
CC(C)c1ccc(NC(=O)C2CC(=O)N(C(C)C)C2)cc1 (stereo not shown)	11.3
Cc1cc(C(=O)NCc2cccnc2)no1	3.74
C[C@]1(C2CCCC2)Cc2cc(OCC(=O)O)c(Cl)c(Cl)c2C1=O	3.75
CC1CC(C)CN(C(=O)COC(=O)c2nn(C)c(=O)c3ccccc23)C1 (stereo not shown)	2.99
COc1cccc(NC(=O)CN(C)C(=O)CC2CC3CCC2C3)c1 (stereo not shown)	4.58
Cc1cc2ccccc2n1CCNC(=O)c1ccccc1	12.1
CCOC(=O)c1ccc(NC(=O)Nn2cnnc2)cc1	20.2
CCOc1ccc(NC(=O)CC2C(=O)N(c3ccc(OC)cc3)C(=O)N2CCc2ccc(OC)c(OC)c2)cc1 (stereo not shown)	2.15

— article PMC4336329 (PLoS ONE, 2015)
